Source: the supplement of paper PMC12217912
This is one part of the list. Sequences were assembled here from the parent chain. Inactive controls read about 0.05.

B1: TEV protease; numbered along this chain (parent)
chain: MGESLFKGPRDYNPISSSICHLTNESDGHTTSLYGIGFGPFIITNKHLFRRNNGTLVVQSLHGVFKVKDTTTLQQHLVDGRDMIIIRMPKDFPPFPQKLKFREPQREERICLVTTNFQTKSMSSMVSDTSCTFPSGDGIFWKHWIQTKDGQCGSPLVSTRDGFIVGIHSASNFTNTNNYFTSVPKNFMELLTNQEAQQWVSGWRLNADSVLWGGHKVFMVKPEEPFQPVKEATQL

Variants of: B1
Assay: raw area under fraction-flipped curve 0-4 h after induction (AUC4h, not background-subtracted), DNA-recorder readout of cleavage of the substrate (dimensionless); higher = more cleavage of the substrate by the protease variant
Conditions: temperature: 34 °C; time window: 0-4 h after rhamnose induction
Experimental: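 In vivo DNA recorder in E. coli TOP10(DE3) ΔrhaA at 34 °C. Each TEVp single-site mutant (parent TEVp 0) is paired with a single-site variant of the 7-mer TEVs (canonical ENLYFQ|S). The substrate sits between flexible linkers in a Bxb1-sfGFP-TEVs-SsrA fusion, so cleavage stabilises Bxb1 and speeds flipping of a recombination array, read by NGS. The value is the raw area under the fraction-flipped curve over 0-4 h after rhamnose induction (AUC4h), with ≥20 reads per time point. It is not background-subtracted; inactive controls average about 0.047.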
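Also: Bxb1 expression induced with 0.2% (w/v) L-rhamnose at OD600 near 0.5, cultures sampled hourly, flipped fraction per protease–substrate barcode pair counted by paired-end Illumina sequencing.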

| Variant | area with substrate ENLAFQS | area with substrate ENLCFQS | area with substrate ENLDFQS | area with substrate ENLEFQS | area with substrate ENLFFQS | area with substrate ENLHFQS | area with substrate ENLIFQS | area with substrate ENLKFQS | area with substrate ENLLFQS | area with substrate ENLMFQS | area with substrate ENLNFQS | area with substrate ENLPFQS | area with substrate ENLQFQS | area with substrate ENLRFQS | area with substrate ENLSFQS | area with substrate ENLWFQS | area with substrate ENLGFQS | area with substrate ENLTFQS | area with substrate ENLVFQS |
| --- | --- | --- | --- | --- | --- | --- | --- | --- | --- | --- | --- | --- | --- | --- | --- | --- | --- | --- | --- |
| MGESLFKGPRDYNPISSSICHLTNESDGHTTSLYGIGFGPFIITNKHLFRRNNGTLVVQSLHGVFKVKDTTTLQQHLVDGRDMIIIRMPKDFPPFPQKLKFREPQREERICLVTTNFQTKSMSSMVSDTSCTFPSGNGIFWKHWIQTKDGQCGSPLVSTRDGFIVGIHSASNFTNTNNYFTSVPKNFMELLTNQEAQQWVSGWRLNADSVLWGGHKVFMVKPEEPFQPVKEATQL [D137N] | 0.0794 | 0.0688 | 0.0466 | 0.0936 | 0.0901 | 0.08 | 0.0881 | 0.0773 | 0.0619 | 0.0627 | 0.0672 | 0.0708 | 0.072 | 0.0692 | 0.0646 | 0.0662 |  |  |  |
| MGESLFKGPRDYNPISSSICHLTNESDGHTTSLYGIGFGPFIITNKHLFRRNNGTLVVQSLHGVFKVKDTTTLQQHLVDGRDMIIIRMPKDFPPFPQKLKFREPQREERICLVTTNFQTKSMSSMVSDTSCTFPSGRGIFWKHWIQTKDGQCGSPLVSTRDGFIVGIHSASNFTNTNNYFTSVPKNFMELLTNQEAQQWVSGWRLNADSVLWGGHKVFMVKPEEPFQPVKEATQL [D137R] | 0.0718 | 0.051 | 0.0669 | 0.0711 | 0.0756 | 0.0536 |  | 0.0505 | 0.0454 |  | 0.0632 | 0.0611 |  | 0.0748 | 0.0631 | 0.0661 |  |  |  |
| MGESLFKGPRDYNPISSSICHLTNESDGHTTSLYGIGFGPFIITNKHLFRRNNGTLVVQSLHGVFKVKDTTTLQQHLVDGRDMIIIRMPKDFPPFPQKLKFREPQREERICLVTTNFQTKSMSSMVSDTSCTFPSGDGAFWKHWIQTKDGQCGSPLVSTRDGFIVGIHSASNFTNTNNYFTSVPKNFMELLTNQEAQQWVSGWRLNADSVLWGGHKVFMVKPEEPFQPVKEATQL [I139A] | 0.0624 | 0.0705 |  | 0.0448 | 0.0943 | 0.0634 | 0.104 | 0.0777 | 0.0748 |  | 0.0701 | 0.0601 | 0.0527 |  | 0.049 | 0.0682 | 0.0682 | 0.0685 | 0.0436 |
| MGESLFKGPRDYNPISSSICHLTNESDGHTTSLYGIGFGPFIITNKHLFRRNNGTLVVQSLHGVFKVKDTTTLQQHLVDGRDMIIIRMPKDFPPFPQKLKFREPQREERICLVTTNFQTKSMSSMVSDTSCTFPSGDGGFWKHWIQTKDGQCGSPLVSTRDGFIVGIHSASNFTNTNNYFTSVPKNFMELLTNQEAQQWVSGWRLNADSVLWGGHKVFMVKPEEPFQPVKEATQL [I139G] | 0.0676 |  |  |  | 0.0934 | 0.056 |  | 0.0711 | 0.0456 |  | 0.062 | 0.0604 | 0.0564 | 0.097 | 0.0617 | 0.0628 |  |  | 0.0678 |
| MGESLFKGPRDYNPISSSICHLTNESDGHTTSLYGIGFGPFIITNKHLFRRNNGTLVVQSLHGVFKVKDTTTLQQHLVDGRDMIIIRMPKDFPPFPQKLKFREPQREERICLVTTNFQTKSMSSMVSDTSCTFPSGDGICWKHWIQTKDGQCGSPLVSTRDGFIVGIHSASNFTNTNNYFTSVPKNFMELLTNQEAQQWVSGWRLNADSVLWGGHKVFMVKPEEPFQPVKEATQL [F140C] | 0.0643 | 0.0561 | 0.0619 | 0.0687 | 0.0666 |  | 0.0614 | 0.0662 | 0.0681 |  | 0.0706 | 0.0626 | 0.0612 | 0.0729 | 0.066 | 0.056 |  |  | 0.0555 |
| MGESLFKGPRDYNPISSSICHLTNESDGHTTSLYGIGFGPFIITNKHLFRRNNGTLVVQSLHGVFKVKDTTTLQQHLVDGRDMIIIRMPKDFPPFPQKLKFREPQREERICLVTTNFQTKSMSSMVSDTSCTFPSGDGIKWKHWIQTKDGQCGSPLVSTRDGFIVGIHSASNFTNTNNYFTSVPKNFMELLTNQEAQQWVSGWRLNADSVLWGGHKVFMVKPEEPFQPVKEATQL [F140K] | 0.0687 |  | 0.0732 | 0.0557 | 0.078 | 0.108 | 0.0947 | 0.0654 |  |  | 0.0841 | 0.0632 |  | 0.071 | 0.0493 |  |  |  |  |
| MGESLFKGPRDYNPISSSICHLTNESDGHTTSLYGIGFGPFIITNKHLFRRNNGTLVVQSLHGVFKVKDTTTLQQHLVDGRDMIIIRMPKDFPPFPQKLKFREPQREERICLVTTNFQTKSMSSMVSDTSCTFPSGDGIFWEHWIQTKDGQCGSPLVSTRDGFIVGIHSASNFTNTNNYFTSVPKNFMELLTNQEAQQWVSGWRLNADSVLWGGHKVFMVKPEEPFQPVKEATQL [K142E] | 0.0586 | 0.0683 | 0.0635 | 0.0549 | 0.092 | 0.0648 |  | 0.0728 | 0.0337 | 0.0848 | 0.0782 | 0.0585 | 0.0634 | 0.0704 | 0.0814 | 0.062 |  |  | 0.0715 |
| MGESLFKGPRDYNPISSSICHLTNESDGHTTSLYGIGFGPFIITNKHLFRRNNGTLVVQSLHGVFKVKDTTTLQQHLVDGRDMIIIRMPKDFPPFPQKLKFREPQREERICLVTTNFQTKSMSSMVSDTSCTFPSGDGIFWFHWIQTKDGQCGSPLVSTRDGFIVGIHSASNFTNTNNYFTSVPKNFMELLTNQEAQQWVSGWRLNADSVLWGGHKVFMVKPEEPFQPVKEATQL [K142F] | 0.0719 | 0.0503 | 0.0649 | 0.0597 | 0.0739 | 0.0625 | 0.0953 | 0.0695 | 0.0818 | 0.0842 | 0.0713 | 0.055 | 0.0605 | 0.0637 | 0.0571 | 0.0687 |  |  |  |
| MGESLFKGPRDYNPISSSICHLTNESDGHTTSLYGIGFGPFIITNKHLFRRNNGTLVVQSLHGVFKVKDTTTLQQHLVDGRDMIIIRMPKDFPPFPQKLKFREPQREERICLVTTNFQTKSMSSMVSDTSCTFPSGDGIFWSHWIQTKDGQCGSPLVSTRDGFIVGIHSASNFTNTNNYFTSVPKNFMELLTNQEAQQWVSGWRLNADSVLWGGHKVFMVKPEEPFQPVKEATQL [K142S] | 0.073 |  | 0.0616 | 0.101 | 0.113 | 0.0643 |  | 0.104 | 0.0866 |  | 0.0685 |  | 0.0519 | 0.0603 | 0.0741 |  |  | 0.0715 | 0.0564 |
